Experimental data published in PubChem BioAssay (NCI).
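96-well plates; 48 h exposure; 5 concentrations. Endpoints by linear interpolation between flanking doses. Not reached: highest tested concentration assigned. Here, GI50 denotes the concentration required for 50% inhibition of growth. TGI marks complete inhibition of growth.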

System: NCI-H322M lung
Test: inhibition of tumour cell growth, NCI panel, 48 h

## Cc1ccnc2[nH]c3ccccc3c(=O)c12
  TGI: > 100 µM

## c1ccc(CCNc2ccccn2)nc1
  TGI: > 100 µM

## Cc1ccc(NC(=O)CC2CC2)cc1-c1ccc(C(=O)NCC2CC2)cc1
  GI50: > 25 µM
  TGI: > 25 µM
